This is one part of the list.
B1: chr11:111720585:111720689:+|CDS|ENSG00000170145|unk|total|mutant (ssRNA)
RNA: GGGAGUUCUACAGUCCGACGAUCGUCUGUUCAGAGGGACCUGAACUUUCUGGAAGACAACCCUUCCCUUAAGGACAUCAUGUCCGCCAAUCAGCCUUCACCCCGCAUGACAUCUCCCUUCAUAAGCCUGAGACCUACCAACCCCAACAGAGGAUUGAGCAUCA
B2: chr8:41262982:41263083:-|3pUTR|ENSG00000104332|msi1|total|mutant (ssRNA)
RNA: GGGAGUUCUACAGUCCGACGAUCCAACCGGGCCCUCUCUCUGCGGCAGAGUCCUCCGUGGAGGGGUUUACCUGGAACAUCCGCCGUUACCACAGAAUACGGAAGAGCAGGUGACUGUGCUGUGCAGCUCUCUAAAUGGGAAUUCAACAGAGGAUUGAGCAUCA
B3: chrX:120613669:120613770:+|3pUTR|ENSG00000232119|msi1|FALSE|bound_elsewhere (ssRNA)
RNA: GGGAGUUCUACAGUCCGACGAUCUAUGCCUCCUGUAUAUCCUGUAAACAAAUAAGAUUGAUCAGAUUCAGGUUCAGUUUUUUUAGUGCCUUCUUUUGAGUAAAGUCAUACCAAACAGAUGCCCAGAACAUCUGGAUUUGGGUCCAACAGAGGAUUGAGCAUCA
B4: chr12:131960804:131960905:+|CDS|ENSG00000183495|unk|total|mutant (ssRNA)
RNA: GGGAGUUCUACAGUCCGACGAUCCCCUCAGCAAGCCCGUCGGCACCCCAGUCUCCCAGUUAUCAAAUACAGCAGCUGAUGAACCGGAGCCCUGCAACCGGGCAGAACGUGAACAUCACCCUGCAGAGCGUGGGCCCUGUCGUCCAACAGAGGAUUGAGCAUCA
B5: chr1:183252010:183252124:-|3pUTR|ENSG00000157064|unk|FALSE|unique (ssRNA)
RNA: GGGAGUUCUACAGUCCGACGAUCUCUUUGUUCACUCCCUGUAGAACUUGGAUGAAAUCAGUGUCCAUGGUUCUUUAUGUUUGUAGUCUUGAUGUGCUCCUGUGGUAUUACUUCCCCUCUGAUAGGACAUUGUAGCCAGCCUCACAACAGAGGAUUGAGCAUCA
B6: chr3:17009782:17009883:+|CDS|ENSG00000154822|unk|FALSE|unique (ssRNA)
RNA: GGGAGUUCUACAGUCCGACGAUCAAUUCAAUGGUUGAGGGUUCAGAACUCAAAAAGGUUCGCUCCAACUCUAGAAUUUAUCAUAGGUACUUUUUACUGGAUGCUGACAUGCAGAGCCUAAGGUGGGAGCCAUCUAAGAAGGAUCAACAGAGGAUUGAGCAUCA
B7: chr14:75048437:75048538:-|CDS|ENSG00000119684|unk|total|mutant (ssRNA)
RNA: GGGAGUUCUACAGUCCGACGAUCUCAGAAGCGUGUGACUUCCGAUGAGAGGAGCAAUUUCCAGGAAGCAUGUAAUAAUAUUUCCGAUUCCUAUGAGAUGUUUAAUUUGCAGUCAAAAGCUGUGAAAAGAAAAACUACUGCAGACAACAGAGGAUUGAGCAUCA
B8: chr8:41661800:41661941:-|CDS|ENSG00000029534|control|control|control (ssRNA)
RNA: GGGAGUUCUACAGUCCGACGAUCGGUUCGACAGAUAGACUUGUCCAGCGCCGAUGCCGCCCAGGAGCACGAGGAGGUGACUGUAGAGGGGCCCCUGGAGGAUCCCAGUGAGCUGGAGGUCGAUAUUGAUUACUUUAUGAAACACAACAGAGGAUUGAGCAUCA
B9: chr15:77046258:77046342:-|3pUTR|ENSG00000140391|msi1_unk|FALSE|overlapping (ssRNA)
RNA: GGGAGUUCUACAGUCCGACGAUCAAAAAUAUUUACUGUAGUCCAAUAAGAUAGCAGCUGUACAAAAUGACUAAAAUAGAUUGUAGGAUCAUAUGGCGUAUAUCUUGGUUCAUCUUCAAAAUCAGAGACUGAGCUUUGAAACUACAACAGAGGAUUGAGCAUCA
B10: chr19:46720021:46720126:-|3pUTR|ENSG00000090372|unk|total|mutant (ssRNA)
RNA: GGGAGUUCUACAGUCCGACGAUCGCCGCUCCUGGUAUCAGAGCUGCUUUCCAGAGGGCAGCACAGCCAGGGCCGGGUGUCUUCCGGGAUCAGUUUUUCCAAGACUCCAGAAGGUGCCAGGUUCUCCCCUUGAGCUCCUGCUCCCAACAGAGGAUUGAGCAUCA
B11: chr3:127036549:127036650:+|3pUTR|ENSG00000114554|msi1|FALSE|unique (ssRNA)
RNA: GGGAGUUCUACAGUCCGACGAUCGUCUACUGGGACAGCAGUCUCCGAGCUACUCCGUACCUCCCUCUGCCAGGUCGUGGAGUUAGGCCCCAGUCCCUACUUGUCACUGGUUCCCACUGUGCUCCUAACUGUGCAGCACCUGGGCAACAGAGGAUUGAGCAUCA
B12: chr17:744420:744865:-|three_prime_utr|ENSG00000179409|control|control|control (ssRNA)
RNA: GGGAGUUCUACAGUCCGACGAUCAUCAGCAGCUUCUUACCUGUGCGGGAGCGAAAAAGCUGGGCUUCAACAUGGCAGGUCUGUAGGGGUCAGACCCGAGCAGCCUGGACUUUACAGUUAUGUGAAACUGUCCACAAAAAGUCACAACAGAGGAUUGAGCAUCA
B13: chr14:92003418:92006448:-|CDS|ENSG00000100815|control|control|control (ssRNA)
RNA: GGGAGUUCUACAGUCCGACGAUCGGAGAGAAUAUUAAUUCUAGAGAUGGACAUUGGCAAACUAAAAGGAGAAAAUGAAAAAAUAGUGGAAACAUACAGGGGAAAGGAAACAGAAUAUCAAGCGUUACAAGAGACUAACAUGAACAACAGAGGAUUGAGCAUCA
B14: chr20:7981316:7981417:-|3pUTR|ENSG00000125827|unk|total|mutant (ssRNA)
RNA: GGGAGUUCUACAGUCCGACGAUCUAAGUUUUCUAAGCAAUAUUUUUCAAGCCAGAAGUCCUCUAAGUCUUGCCAGUACAAGGCCGUCUUGUGAAGAAAAGUUGAAUACUGUUUUGUUUUCAUCUCAAGGGGUUCCCUGGGUCUCAACAGAGGAUUGAGCAUCA
B15: chr15:50499333:50499363:+|3pUTR|ENSG00000138592|msi1_unk|total|mutant (ssRNA)
RNA: GGGAGUUCUACAGUCCGACGAUCCAGGUACCAUUUAUUUCAAAACAACUUUUUCCGUCUGCUCCAAAGUUAAAAUAAUUAACCCGCUAAGCAUUAUUAUUCGACUGGUCUAAAAACUAUUGUUAUCUUUUUUUUUUCCUUUUCCAACAGAGGAUUGAGCAUCA
B16: chrX:65741840:65741941:+|3pUTR|ENSG00000147065|msi1|FALSE|unique (ssRNA)
RNA: GGGAGUUCUACAGUCCGACGAUCAAAUUGUUUUUGGAGGGGUUUAUGCUCAAUCCAUGUUCUAUUUCAGUGCCAAUAAAAUUUAGGAAGACUUCACAGUGACUCAAUCGUUCUUUGUGGUAUGAGUGGGUAGCUGUAAGAUAUCAACAGAGGAUUGAGCAUCA
B17: ENSG00000198589:be:win_8201|CDS|ENSG00000198589|bound_else_gene|NA|bound_elsewhere_windowed (ssRNA)
RNA: GGGAGUUCUACAGUCCGACGAUCUCAUUCAGGCUUCAAGAGAGGGUCAUUGUGUCAUAUUCUAUGAAAACGGCCUCUUCUGUACAUUCAGUGUGAAUGGAAAACUCCAGGCCACGAUGGAAACAGAUGAUAACAUAAGAGCCACAACAGAGGAUUGAGCAUCA
B18: chr19:35623844:35623945:+|3pUTR|ENSG00000249115|unk|total|mutant (ssRNA)
RNA: GGGAGUUCUACAGUCCGACGAUCUGUGUCAAGAGCAGCGGCGGUGACGCAGGUGCCGAGAUUUGUCAGAGCUCAUGCCGUUGCCGUCUUAAGGCCUGUGCAUUUCACUGCGUGGGUUACUCAAUUUAUAAAGCAAAGCCCUUACAACAGAGGAUUGAGCAUCA
B19: chr1:217137657:217137758:-|5pUTR|ENSG00000196482|msi1|total|mutant (ssRNA)
RNA: GGGAGUUCUACAGUCCGACGAUCCGGGCUCCAGGCCGGGCUCCCUAAACGGGUCAGCAAUUGGAGCGGGAAGGCCGGACAGGCCGGUGGCGUGGGGCGCACAAGCCCGGCAGCGAUAACCGGGGACGUCUGUACUGCUUCCAACAACAGAGGAUUGAGCAUCA
B20: ENSG00000136451:be:win_3201|3pUTR|ENSG00000136451|bound_else_gene|NA|bound_elsewhere_windowed (ssRNA)
RNA: GGGAGUUCUACAGUCCGACGAUCAACAGUUCUAGGGGGUUGAACUACAUAGUAAAAAAAUAAAAUAAAUAGUACUUAGUGUAAAAUAAUUUUAUAAAUGAUCUUUUGUACUUUAGGACAUUAAAUUGUACAACUUUUGUAUAUCAACAGAGGAUUGAGCAUCA
B21: chr1:88684422:88684524:+|5pUTR|ENSG00000065243|unk|total|mutant (ssRNA)
RNA: GGGAGUUCUACAGUCCGACGAUCUCGAUGAACCGGACGGAAUAAGCCGCGCCUCCAGCAGGGGCUGCGCCUCCAUGAAUCCCCCGUUGUUUUUUUUUUUUUCUUUCUCUCCCCUCUCCUCACCCCCACCCCGAGCCCCGUCCCCAACAGAGGAUUGAGCAUCA
B22: chr5:10679541:10679642:-|3pUTR|ENSG00000112977|msi1|FALSE|unique (ssRNA)
RNA: GGGAGUUCUACAGUCCGACGAUCCUUCAAGGCCCUGUCACCACCUAUUUCCUGAUCAGUUGGUAUAAACUGAGGGUGGCUUUUAGAGACCCAGACUUGGUUGGCAGCGCUGCCAUGGAACACCCCAGCAAGCACCUCCCAGCCCAACAGAGGAUUGAGCAUCA

target: MSI1 full-length (mouse, UniProt Q61474 1-362); assay: nsRBNS (natural sequence RNA bind-n-seq); RBNS binding buffer (assumed for nsRBNS): 25 mM Tris pH 7.5, 150 mM KCl, 3 mM MgCl2, 0.01% Triton X-100, 500 ug/ml BSA, 20 U/ml SUPERase-In, 4 C; UNK is unkempt and MSI1 is Musashi-1; names of the RNAs are library labels; protein concentration not given here; high values mean tight binding
Sequence of UniProt Q61474 (Q61474 whole entry): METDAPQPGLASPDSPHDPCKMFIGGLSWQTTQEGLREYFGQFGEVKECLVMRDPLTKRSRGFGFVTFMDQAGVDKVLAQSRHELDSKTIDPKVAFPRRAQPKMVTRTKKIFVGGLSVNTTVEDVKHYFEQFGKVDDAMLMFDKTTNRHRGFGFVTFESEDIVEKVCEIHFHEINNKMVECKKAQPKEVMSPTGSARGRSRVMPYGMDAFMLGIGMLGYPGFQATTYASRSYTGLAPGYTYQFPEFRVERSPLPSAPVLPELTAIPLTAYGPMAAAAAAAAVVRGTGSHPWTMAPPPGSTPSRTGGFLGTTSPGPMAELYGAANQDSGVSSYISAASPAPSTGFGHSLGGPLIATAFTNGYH

| Binder | binding signal [enrichment R] |
| --- | --- |
| B1 | 0.613 |
| B2 | 0.416 |
| B3 | 0.755 |
| B4 | 0.583 |
| B5 | 1.33 |
| B6 | 1.02 |
| B7 | 0.272 |
| B8 | 0.668 |
| B9 | 9.31 |
| B10 | 0.465 |
| B11 | 0.508 |
| B12 | 0.334 |
| B13 | 0.724 |
| B14 | 0.304 |
| B15 | 4.71 |
| B16 | 0.575 |
| B17 | 0.285 |
| B18 | 0.357 |
| B19 | 0.456 |
| B20 | 23.1 |
| B21 | 1.19 |
| B22 | 0.702 |
